# Patent US7592316B2, “Peptides as NS3-serine protease inhibitors of hepatitis C virus” (Schering Corporation, priority 2000, dated 2009)
# *1 amine or outer side, *2 acyl side, *3 side chain or, on linkers, in order; H or OH if unused. Where a SMILES comes first, the peptide text is derived from it. [ ]: non-standard residue; d: D form. The star is where a group is joined. ξ: configuration not given here. Phenylacetyl(3-CH2COOH) = O=C(O)Cc1cccc(CC(=O)*)c1; Pro(4,4-S(CH2)3S) = O=C(O)[C@@H]1CC2(CN1)SCCCS2; ξPro(4R-SBzl) = O=C(O)C1C[C@@H](SCc2ccccc2)CN1; ξPro(4,4-S(CH2)3S) = O=C(O)C1CC2(CN1)SCCCS2; X28 = O=C(Cc1cc(C(F)(F)F)cc(C(F)(F)F)c1)*; Benzoyl(3-COOH) = O=C(O)c1cccc(C(=O)*)c1; Pro(4,4-F2) = O=C(O)[C@@H]1CC(F)(F)CN1; Isobutyloxycarbonyl = CC(C)COC(=O)*; X8 = O=C(C(=O)[*:2])C(CC1CC1)N[*:1]; X4 = CCCCC(N[*:1])C(=O)C(=O)[*:2]; ξ2Nal = NC(Cc1ccc2ccccc2c1)C(=O)O; Hyp = O=C(O)[C@@H]1C[C@@H](O)CN1; X2 = CCCC(N[*:1])C(=O)C(=O)[*:2]; dPhg = N[C@@H](C(=O)O)c1ccccc1; Benzyl(4-Cl) = Clc1ccc(C*)cc1; Chg = N[C@H](C(=O)O)C1CCCCC1; Phg = N[C@H](C(=O)O)c1ccccc1; Tle = CC(C)(C)[C@H](N)C(=O)O; X85 = Cc1cc(C)cc(CC(=O)*)c1; ξChg = NC(C(=O)O)C1CCCCC1; ξPhg = NC(C(=O)O)c1ccccc1; Carboxymethyl = O=C(O)C*; X64 = COc1ccccc1C(=O)*; ξNle = CCCCC(N)C(=O)O; ξK = NCCCCC(N)C(=O)O; ξV = CC(C)C(N)C(=O)O; Bn = c1ccc(C*)cc1; OtBu = CC(C)(C)O*; tBu = CC(C)(C)*
# Molecular target: HCV NS3/NS4A protease (strain 1a) (Hepatitis C virus genotype 1a, UniProt P27958)
# Assay: biochemical
# Conditions: Compounds prepared by Solid Phase Synthesis, Table 3; read-out: Ki* CLASS
row,Structure (SMILES),Ki [nM]
1,CCCCC(NC(=O)C(CCCC)NC(=O)CNC(=O)C(=O)C(CCC)NC(=O)[C@@H]1C[C@@H](OCc2ccccc2)CN1C(=O)C(NC(=O)Cc1cccc(CC(=O)O)c1)C1CCCCC1)C(N)=O (stereo partly shown) ({Phenylacetyl(3-CH2COOH)}-[ξChg][Hyp](Bn)[X2]G[ξNle][ξNle]-NH2),101 to 1000
2,CCCC(NC(=O)[C@@H]1C[C@@H](OCC(=O)O)CN1C(=O)C(NC(=O)OCC(C)C)C(C)C)C(=O)C(=O)NCC(=O)NC(Cc1ccc2ccccc2c1)C(N)=O (stereo partly shown) (Isobutyloxycarbonyl-[ξV][Hyp](Carboxymethyl)[X2]G[ξ2Nal]-NH2),> 1000
3,CCCC(NC(=O)[C@@H]1C[C@@H](OCc2ccccc2)CN1C(=O)C(NC(=O)c1cccc(C(=O)O)c1)C1CCCCC1)C(=O)C(=O)NCC(=O)N[C@@H](C(N)=O)c1ccccc1 (stereo partly shown) ({Benzoyl(3-COOH)}-[ξChg][Hyp](Bn)[X2]G[dPhg]-NH2),101 to 1000
4,CCCC(NC(=O)[C@@H]1C[C@@H](OCC(=O)O)CN1C(=O)C(NC(=O)OCC(C)C)C(C)C)C(=O)C(=O)NCC(=O)NC(CCCCN)C(N)=O (stereo partly shown) (Isobutyloxycarbonyl-[ξV][Hyp](Carboxymethyl)[X2]G[ξK]-NH2),> 1000
5,CCCC(NC(=O)[C@@H]1C[C@@H](OCC(=O)O)CN1C(=O)C(NC(=O)OCC(C)C)C(C)C)C(=O)C(=O)NCC(=O)NC(C(N)=O)C1CCCCC1 (stereo partly shown) (Isobutyloxycarbonyl-[ξV][Hyp](Carboxymethyl)[X2]G[ξChg]-NH2),> 1000
6,CCCC(NC(=O)[C@@H]1C[C@@H](OC(C)(C)C)CN1C(=O)[C@@H](NC(=O)c1c(F)cccc1F)C1CCCCC1)C(=O)C(=O)NCC(=O)NC(CC(N)=O)c1ccccc1 (stereo partly shown),> 1000
7,CCCCC(NC(=O)CNC(=O)C(=O)C(CCC)NC(=O)[C@@H]1C[C@@H](OC(C)(C)C)CN1C(=O)C(NC(=O)Cc1cc(C(F)(F)F)cc(C(F)(F)F)c1)C1CCCCC1)C(N)=O (stereo partly shown) (X28-[ξChg][Hyp](tBu)[X2]G[ξNle]-NH2),> 1000
8,CCCCC(NC(=O)[C@@H]1C[C@@H](OCc2ccccc2)CN1C(=O)C(NC(=O)c1ccccc1OC)C1CCCCC1)C(=O)C(=O)NCC(=O)NC(C(N)=O)c1ccccc1 (stereo partly shown) (X64-[ξChg][Hyp](Bn)[X4]G[ξPhg]-NH2),> 1000
9,CCCCC(NC(=O)CNC(=O)C(=O)C(CCC)NC(=O)[C@@H]1C[C@@H](OCC(=O)O)CN1C(=O)C(NC(=O)Cc1cc(C)cc(C)c1)C1CCCCC1)C(N)=O (stereo partly shown) (X85-[ξChg][Hyp](Carboxymethyl)[X2]G[ξNle]-NH2),> 1000
10,CCCC(NC(=O)[C@@H]1C[C@@H](OC(C)(C)C)CN1C(=O)[C@@H](NC(=O)OCC(C)C)C(C)(C)C)C(=O)C(=O)NCC(=O)N[C@H](C(N)=O)c1ccccc1 (stereo partly shown) (Isobutyloxycarbonyl-[Tle][Hyp](tBu)[X2]G[Phg]-NH2),101 to 1000

# Same assay, conditions: HCV protease continuous assay results, Table 1; read-out: Ki* Range
row,Ki [nM],Structure (SMILES)
1,1 to 100,CCCC(NC(=O)[C@@H]1CC(OCCOc2ccccc2)CN1C(=O)C(NC(=O)OC(C)(C)C)C1CCCCC1)C(=O)C(=O)NCC(=O)NC(C(=O)N(C)C)c1ccccc1 (stereo partly shown) [Example 259]
2,> 1000,C=CCNC(=O)C(=O)C(CCC)NC(=O)[C@@H]1CCCN1C(=O)[C@@H](NC(=O)CCC[C@H](NC(=O)OCc1ccccc1)C(=O)OCc1ccccc1)C(C)C (stereo partly shown) [Example 41]
3,101 to 1000,C=CCC(NC(=O)[C@@H]1[C@@H]2[C@H](CN1C(=O)[C@H](NC(=O)OC(C)(C)C)C(C)(C)C)C2(C)C)C(=O)C(=O)NCC(=O)O (stereo partly shown) [Example 335]
4,> 1000,CCCC(NC(=O)[C@@H]1C[C@@H](OCc2ccccc2)CN1C(=O)[C@@H](NC(=O)c1ccccc1C(=O)O)C1CCCCC1)C(=O)C(=O)NCCCC(C(N)=O)c1ccccc1 (stereo partly shown) [Example 94]
5,> 1000,CCCCC(NC(=O)[C@@H]1C[C@@H](OC(C)(C)C)CN1C(=O)[C@@H](NC(=O)OCC(C)C)C(C)(C)C)C(=O)C(=O)NCC(=O)N[C@H](CN=[N+]=[N-])c1ccccc1 (stereo partly shown) [Example 265]
6,> 1000,CCCC(NC(=O)[C@@H]1C[C@@H](OC(C)(C)C)CN1C(=O)[C@@H](NC(=O)[C@H](CC(C)C)NS(C)(=O)=O)C1CCCCC1)C(=O)C(=O)NCCOC(C(N)=O)c1ccccc1 (stereo partly shown) [Example 106]

row,Structure (SMILES),Ki [nM]
1,"CC(C)COC(=O)N[C@H](C(=O)N1CC2(CC1C(=O)NC(CC1CC1)C(=O)C(=O)NCC(=O)NC(C(=O)N(C)C)c1ccccc1)SCCCS2)C1CCCCC1 (stereo partly shown) [Example 148] (Isobutyloxycarbonyl-[Chg][ξPro(4,4-S(CH2)3S)][X8]G[ξPhg]-NMe2)",101 to 1000
2,"CCCC(NC(=O)[C@@H]1CC(F)(F)CN1C(=O)[C@@H](NC(=O)OCC(C)C)C1CCCCC1)C(=O)C(=O)NCC(=O)N[C@H](C(=O)OC(C)(C)C)c1ccccc1 (stereo partly shown) [Example 201] (Isobutyloxycarbonyl-[Chg][Pro(4,4-F2)][X2]G[Phg]-OtBu)",101 to 1000
3,CCCCC(NC(=O)[C@@H]1C[C@@H](OC(C)(C)C)CN1C(=O)[C@@H](NC(=O)OCC(C)C)C(C)(C)C)C(=O)C(=O)NCC(=O)N[C@H](C(=O)N(C)C)c1ccccc1 (stereo partly shown) [Example 226] (Isobutyloxycarbonyl-[Tle][Hyp](tBu)[X4]G[Phg]-NMe2),1 to 100
4,CCCC(NC(=O)C1C[C@@H](SCc2ccccc2)CN1C(=O)C(NC(=O)OCC(C)C)C1CCCCC1)C(=O)C(=O)NCC(=O)NC(C(=O)NC)c1ccccc1 (stereo partly drawn) [Example 159] (Isobutyloxycarbonyl-[ξChg][ξPro(4R-SBzl)][X2]G[ξPhg]-NHMe),101 to 1000
5,"CCCC(NC(=O)[C@@H]1CC2(CN1C(=O)[C@@H](NC(=O)OCC(C)C)[C@@H](C)OCc1ccc(Cl)cc1)SCCCS2)C(=O)C(=O)NCC(=O)N[C@H](C(=O)N(C)C)c1ccccc1 (stereo partly shown) [Example 115] (Isobutyloxycarbonyl-T(Benzyl(4-Cl))[Pro(4,4-S(CH2)3S)][X2]G[Phg]-NMe2)",101 to 1000

# Same assay, conditions: Table 5; HCV NS3/NS4A protease, 30° C., pH 6.5; read-out: Ki* Range
row,Ki [nM],Structure (SMILES)
1,> 1000,C=CCNC(=O)C(=O)C(CC)NC(=O)[C@@H]1[C@@H]2[C@H](CN1C(=O)[C@@H](NC(=O)OC(C)(C)C)C1CCCCC1)C2(C)C (stereo partly shown)
